The results in this text go back to patent US20100260668A1 (published 2010).

What is called Kd is the concentration at which binding is half-saturated. The low end stands for higher affinity, the high end for lower affinity. What is called koff is the rate constant with which the complex falls apart. Lower therefore signals a long-lived complex. Usually kon stands for a measure of how fast the partners come together.

The labels stand for the following.
B1: DVD447 (bispecific antibody, human IgG1, kappa)
heavy: QVQLVQSGAEVKKPGASVKISCKASGYSFTAYYIHWVKQAPGQGLEWIGYISSYNGATNYNQKFKGRVTFTTDTSTSTAYMELRSLRSDDTAVYYCARDYDYDVGMDYWGQGTLVTVSSASTKGPSVFPLAPEVQLVESGGGLVQPGGSLRLSCAASGYTFTNYGMNWVRQAPGKGLEWVGWINTYTGEPTYAADFKRRFTFSLDTSKSTAYLQMNSLRAEDTAVYYCAKYPHYYGSSHWYFDVWGQGTLVTVSS[omitted - human IgG1 constant region]
light: DIVMTQSPDSLAVSLGERATISCRASESVDNYGISFMKWFQQKPGQPPKLLIYAASNQGSGVPDRFSGSGSGTDFTLTISSLQAEDVAVYYCQQSKEVPWTFGGGTKVEIKRTVAAPSVFIFPPDIQMTQSPSSLSASVGDRVTITCSASQDISNYLNWYQQKPGKAPKVLIYFTSSLHSGVPSRFSGSGSGTDFTLTISSLQPEDFATYYCQQYSTVPWTFGQGTKVEIKRTVAAPSVFIFPPSDEQLKSGTASVVCLLNNFYPREAKVQWKVDNALQSGNSQESVTEQDSKDSTYSLSSTLTLSKADYEKHKVYACEVTHQGLSSPVTKSFNRGEC
notes: DVD-Ig; N-term; AB069 (DLL4), C-term; AB014 (VEGF); HC linker long, LC linker long; also called DVD447H; DVD447L
B2: DVD441 (bispecific antibody, human IgG1, kappa)
heavy: QVQLVQSGAEVKKPGASVKISCKASGYSFTAYYIHWVKQAPGQGLEWIGYISSYNGATNYNQKFKGRVTFTTDTSTSTAYMELRSLRSDDTAVYYCARDYDYDVGMDYWGQGTLVTVSSASTKGPEVQLVESGGGLVQPGGSLRLSCAASGYTFTNYGMNWVRQAPGKGLEWVGWINTYTGEPTYAADFKRRFTFSLDTSKSTAYLQMNSLRAEDTAVYYCAKYPHYYGSSHWYFDVWGQGTLVTVSS[omitted - human IgG1 constant region]
light: DIVMTQSPDSLAVSLGERATISCRASESVDNYGISFMKWFQQKPGQPPKLLIYAASNQGSGVPDRFSGSGSGTDFTLTISSLQAEDVAVYYCQQSKEVPWTFGGGTKVEIKRTVAAPDIQMTQSPSSLSASVGDRVTITCSASQDISNYLNWYQQKPGKAPKVLIYFTSSLHSGVPSRFSGSGSGTDFTLTISSLQPEDFATYYCQQYSTVPWTFGQGTKVEIKRTVAAPSVFIFPPSDEQLKSGTASVVCLLNNFYPREAKVQWKVDNALQSGNSQESVTEQDSKDSTYSLSSTLTLSKADYEKHKVYACEVTHQGLSSPVTKSFNRGEC
notes: DVD-Ig; N-term; AB069 (DLL4), C-term; AB014 (VEGF); HC linker short, LC linker short; also called DVD441H; DVD441L
B3: DVD469 (bispecific antibody, human IgG1, kappa)
heavy: EVQLVESGGGLVQPGGSLRLSCAASGFTFTDNWISWVRQAPGKGLEWVGYISPNSGFTYYADSVKGRFTISADTSKNTAYLQMNSLRAEDTAVYYCARDNFGGYFDYWGQGTLVTVSSASTKGPSVFPLAPEVQLVESGGGLVQPGGSLRLSCAASGYTFTNYGMNWVRQAPGKGLEWVGWINTYTGEPTYAADFKRRFTFSLDTSKSTAYLQMNSLRAEDTAVYYCAKYPHYYGSSHWYFDVWGQGTLVTVSS[omitted - human IgG1 constant region]
light: DIQMTQSPSSLSASVGDRVTITCRASQDVSTAVAWYQQKPGKAPKLLIYSASFLYSGVPSRFSGSGSGTDFTLTISSLQPEDFATTYYCQQSYTGTVTFGQGTKVEIKRTVAAPSVFIFPPDIQMTQSPSSLSASVGDRVTITCSASQDISNYLNWYQQKPGKAPKVLIYFTSSLHSGVPSRFSGSGSGTDFTLTISSLQPEDFATYYCQQYSTVPWTFGQGTKVEIKRTVAAPSVFIFPPSDEQLKSGTASVVCLLNNFYPREAKVQWKVDNALQSGNSQESVTEQDSKDSTYSLSSTLTLSKADYEKHKVYACEVTHQGLSSPVTKSFNRGEC
notes: DVD-Ig; N-term; AB015 (DLL4), C-term; AB014 (VEGF); HC linker long, LC linker long; also called DVD469H; DVD469L
B4: DVD481 (bispecific antibody, human IgG1, kappa)
heavy: EVQLVESGGGLVQPGGSLRLSCAASGFTFTDNWISWVRQAPGKGLEWVGYISPNSGFTYYADSVKGRFTISADTSKNTAYLQMNSLRAEDTAVYYCARDNFGGYFDYWGQGTLVTVSSASTKGPEVQLVESGGGLVQPGGSLRLSCAASGYTFTNYGMNWVRQAPGKGLEWVGWINTYTGEPTYAADFKRRFTFSLDTSKSTAYLQMNSLRAEDTAVYYCAKYPHYYGSSHWYFDVWGQGTLVTVSS[omitted - human IgG1 constant region]
light: DIQMTQSPSSLSASVGDRVTITCRASQDVSTAVAWYQQKPGKAPKLLIYSASFLYSGVPSRFSGSGSGTDFTLTISSLQPEDFATTYYCQQSYTGTVTFGQGTKVEIKRTVAAPSVFIFPPDIQMTQSPSSLSASVGDRVTITCSASQDISNYLNWYQQKPGKAPKVLIYFTSSLHSGVPSRFSGSGSGTDFTLTISSLQPEDFATYYCQQYSTVPWTFGQGTKVEIKRTVAAPSVFIFPPSDEQLKSGTASVVCLLNNFYPREAKVQWKVDNALQSGNSQESVTEQDSKDSTYSLSSTLTLSKADYEKHKVYACEVTHQGLSSPVTKSFNRGEC
notes: DVD-Ig; N-term; AB015 (DLL4), C-term; AB014 (VEGF); HC linker short, LC linker long; also called DVD481H; DVD481L
B5: DVD475 (bispecific antibody, human IgG1, kappa)
heavy: EVQLVESGGGLVQPGGSLRLSCAASGFTFTDNWISWVRQAPGKGLEWVGYISPNSGFTYYADSVKGRFTISADTSKNTAYLQMNSLRAEDTAVYYCARDNFGGYFDYWGQGTLVTVSSASTKGPSVFPLAPEVQLVESGGGLVQPGGSLRLSCAASGYTFTNYGMNWVRQAPGKGLEWVGWINTYTGEPTYAADFKRRFTFSLDTSKSTAYLQMNSLRAEDTAVYYCAKYPHYYGSSHWYFDVWGQGTLVTVSS[omitted - human IgG1 constant region]
light: DIQMTQSPSSLSASVGDRVTITCRASQDVSTAVAWYQQKPGKAPKLLIYSASFLYSGVPSRFSGSGSGTDFTLTISSLQPEDFATTYYCQQSYTGTVTFGQGTKVEIKRTVAAPDIQMTQSPSSLSASVGDRVTITCSASQDISNYLNWYQQKPGKAPKVLIYFTSSLHSGVPSRFSGSGSGTDFTLTISSLQPEDFATYYCQQYSTVPWTFGQGTKVEIKRTVAAPSVFIFPPSDEQLKSGTASVVCLLNNFYPREAKVQWKVDNALQSGNSQESVTEQDSKDSTYSLSSTLTLSKADYEKHKVYACEVTHQGLSSPVTKSFNRGEC
notes: DVD-Ig; N-term; AB015 (DLL4), C-term; AB014 (VEGF); HC linker long, LC linker short; also called DVD475H; DVD475L
B6: DVD493 (bispecific antibody, human IgG1, kappa)
heavy: EVQLQQSGPELVKPGASVKMSCKASGYTFTSYVINWVKQKPGQGLEWIGLINPYNDGTKYNEKFKVKATLTSDKSSSTAYMELSSLTSEDSAVYYCASYYYGSRYYFDYWGQGTTLTVSSASTKGPSVFPLAPEVQLVESGGGLVQPGGSLRLSCAASGYTFTNYGMNWVRQAPGKGLEWVGWINTYTGEPTYAADFKRRFTFSLDTSKSTAYLQMNSLRAEDTAVYYCAKYPHYYGSSHWYFDVWGQGTLVTVSS[omitted - human IgG1 constant region]
light: DIQMTQSSSYLSVSLGGRVTITCKASDHINNWLAWYQQKPGNAPRLLISGATSLETGVPSRFSGSGSGKDYTLSITSLQTEDVATYYCQQYWSIPLTFGAGTKLELKRTVAAPSVFIFPPDIQMTQSPSSLSASVGDRVTITCSASQDISNYLNWYQQKPGKAPKVLIYFTSSLHSGVPSRFSGSGSGTDFTLTISSLQPEDFATYYCQQYSTVPWTFGQGTKVEIKRTVAAPSVFIFPPSDEQLKSGTASVVCLLNNFYPREAKVQWKVDNALQSGNSQESVTEQDSKDSTYSLSSTLTLSKADYEKHKVYACEVTHQGLSSPVTKSFNRGEC
notes: DVD-Ig; N-term; VD DLL4 (AB072), C-term; VD VEGF (AB014); HC linker long, LC linker long; also called DVD-Ig DVD493; DVD493H
B7: DVD505 (bispecific antibody, human IgG1, kappa)
heavy: EVQLQQSGPELVKPGASVKMSCKASGYTFTSYVINWVKQKPGQGLEWIGLINPYNDGTKYNEKFKVKATLTSDKSSSTAYMELSSLTSEDSAVYYCASYYYGSRYYFDYWGQGTTLTVSSASTKGPEVQLVESGGGLVQPGGSLRLSCAASGYTFTNYGMNWVRQAPGKGLEWVGWINTYTGEPTYAADFKRRFTFSLDTSKSTAYLQMNSLRAEDTAVYYCAKYPHYYGSSHWYFDVWGQGTLVTVSS[omitted - human IgG1 constant region]
light: DIQMTQSSSYLSVSLGGRVTITCKASDHINNWLAWYQQKPGNAPRLLISGATSLETGVPSRFSGSGSGKDYTLSITSLQTEDVATYYCQQYWSIPLTFGAGTKLELKRTVAAPSVFIFPPDIQMTQSPSSLSASVGDRVTITCSASQDISNYLNWYQQKPGKAPKVLIYFTSSLHSGVPSRFSGSGSGTDFTLTISSLQPEDFATYYCQQYSTVPWTFGQGTKVEIKRTVAAPSVFIFPPSDEQLKSGTASVVCLLNNFYPREAKVQWKVDNALQSGNSQESVTEQDSKDSTYSLSSTLTLSKADYEKHKVYACEVTHQGLSSPVTKSFNRGEC
notes: DVD-Ig; N-term; VD DLL4 (AB072), C-term; VD VEGF (AB014); HC linker short, LC linker long; also called DVD-Ig DVD505; DVD505H
B8: DVD499 (bispecific antibody, human IgG1, kappa)
heavy: EVQLQQSGPELVKPGASVKMSCKASGYTFTSYVINWVKQKPGQGLEWIGLINPYNDGTKYNEKFKVKATLTSDKSSSTAYMELSSLTSEDSAVYYCASYYYGSRYYFDYWGQGTTLTVSSASTKGPSVFPLAPEVQLVESGGGLVQPGGSLRLSCAASGYTFTNYGMNWVRQAPGKGLEWVGWINTYTGEPTYAADFKRRFTFSLDTSKSTAYLQMNSLRAEDTAVYYCAKYPHYYGSSHWYFDVWGQGTLVTVSS[omitted - human IgG1 constant region]
light: DIQMTQSSSYLSVSLGGRVTITCKASDHINNWLAWYQQKPGNAPRLLISGATSLETGVPSRFSGSGSGKDYTLSITSLQTEDVATYYCQQYWSIPLTFGAGTKLELKRTVAAPDIQMTQSPSSLSASVGDRVTITCSASQDISNYLNWYQQKPGKAPKVLIYFTSSLHSGVPSRFSGSGSGTDFTLTISSLQPEDFATYYCQQYSTVPWTFGQGTKVEIKRTVAAPSVFIFPPSDEQLKSGTASVVCLLNNFYPREAKVQWKVDNALQSGNSQESVTEQDSKDSTYSLSSTLTLSKADYEKHKVYACEVTHQGLSSPVTKSFNRGEC
notes: DVD-Ig; N-term; VD DLL4 (AB072), C-term; VD VEGF (AB014); HC linker long, LC linker short; also called DVD-Ig DVD499; DVD499H

The target of the first test is T1, VEGF (UniProt P15692-4 27-191).
T1 construct: Bought reagent; also called vascular endothelial growth factor
T1 sequence (looked up): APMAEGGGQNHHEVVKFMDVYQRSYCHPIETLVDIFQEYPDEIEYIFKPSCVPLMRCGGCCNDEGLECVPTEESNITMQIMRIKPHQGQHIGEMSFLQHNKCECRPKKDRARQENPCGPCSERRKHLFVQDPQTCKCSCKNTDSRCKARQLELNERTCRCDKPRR
Put plainly: BIACORE SPR. Background: SPR reads the build-up and loss of mass on a sensor chip optically.
For the molecule B1, binding was characterised by a dissociation constant (Kd) of 159 pM, the koff was 4.76e-05 s⁻¹ and the kon amounted to 299000 M⁻¹ s⁻¹.
Take B2: the Kd came to 558 pM, the koff amounted to 7.43e-05 s⁻¹ and the kon came out at 133000 M⁻¹ s⁻¹.
On to B3, for which the Kd was 455 pM, the koff was found to be 0.0151 s⁻¹ and the kon was 3.31e+07 M⁻¹ s⁻¹.
As for B4, the Kd stood at 1200 pM, the koff came to 0.000573 s⁻¹ and the kon came out at 476000 M⁻¹ s⁻¹.
In turn, B5 yielded a Kd of 838 pM, a koff of 0.00024 s⁻¹ and a kon of 286000 M⁻¹ s⁻¹.

The next test addresses T2, DLL4 (DLL ECD His tag, R&D 1506-D4-050) (UniProt Q9NR61 in part).
T2 construct: extracellular domain; bought
Briefly: BIACORE (SPR), DVD-Ig against DLL4.
B6 registered a Kd of 137 pM, a koff of 4e-05 s⁻¹ and a kon of 292000 M⁻¹ s⁻¹.
B7 displayed a Kd of 153 pM, a koff of 4.02e-05 s⁻¹ and an on-rate constant (kon) of 262000 M⁻¹ s⁻¹.
For B8 the same measures were 295 pM, 8.01e-05 s⁻¹ and 271000 M⁻¹ s⁻¹.
